# The list shows a part of the results. Read counts after selection give these values, which scatter widely. Scores sum up all selected molecules that hold the word; the word was not tested alone.
# Experiments:
# Assay in all cases: 6-mer SELEX enrichment z-score vs GST control; IMP3 is the RNA-binding protein IGF2BP3; higher = more enriched by binding
# IMP3 KH1-4 = conditions: construct: KH1-4 (164-579); SELEX round: R4
# Protocol: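 SELEX-seq with GST-tagged IMP3 KH1-4 (Pro164-Lys579) and an N40 RNA pool, round 4. 6-mer z-score of sequence-tag enrichment normalised to the corresponding GST SELEX round; RNA k-mers written as DNA (T for U).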
# IMP3 RRM1-2 = conditions: construct: RRM1-2 (1-163); SELEX round: R2
# Protocol: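 SELEX-seq with GST-tagged IMP3 RRM1-2 (Met1-Asn163) and an N40 RNA pool, round 2. 6-mer enrichment z-score normalised to GST SELEX. RNA written as DNA (T = U).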
# IMP3 full-length = IMP3 full-length (UniProt O00425); conditions: construct: FL IMP3 (1-579); SELEX round: R4
# Protocol: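 SELEX-seq with GST-tagged full-length IMP3 and an N40 RNA pool, round 4. Each 6-mer is scored as an enrichment z-score of sequence tags containing it, normalised to the matching GST SELEX round. RNA written as DNA (T = U).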
# IMP3 KH1-2 = conditions: construct: KH1-2 (164-376); SELEX round: R4
# Protocol: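 SELEX-seq with GST-tagged IMP3 KH1-2 (Pro164-Phe376) and an N40 RNA pool, round 4 (stringent 300/600 mM KCl washes). 6-mer z-score of sequence-tag enrichment normalised to the corresponding GST SELEX round; RNA k-mers written as DNA (T for U).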
# IMP3 KH3-4 = conditions: construct: KH3-4 (377-579); SELEX round: R4
# Protocol: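 SELEX-seq with GST-tagged IMP3 KH3-4 (Pro377-Lys579) and an N40 RNA pool, round 4. 6-mer z-score of sequence-tag enrichment normalised to the corresponding GST SELEX round; RNA k-mers written as DNA (T for U).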
# Chain of IMP3 KH1-2 (chain, as listed by the source): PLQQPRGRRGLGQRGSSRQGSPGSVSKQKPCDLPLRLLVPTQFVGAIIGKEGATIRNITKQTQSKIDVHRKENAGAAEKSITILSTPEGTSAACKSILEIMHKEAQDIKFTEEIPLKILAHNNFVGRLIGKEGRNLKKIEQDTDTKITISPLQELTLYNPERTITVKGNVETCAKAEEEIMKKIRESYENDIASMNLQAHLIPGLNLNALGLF
# Chain of UniProt O00425 (O00425 whole entry): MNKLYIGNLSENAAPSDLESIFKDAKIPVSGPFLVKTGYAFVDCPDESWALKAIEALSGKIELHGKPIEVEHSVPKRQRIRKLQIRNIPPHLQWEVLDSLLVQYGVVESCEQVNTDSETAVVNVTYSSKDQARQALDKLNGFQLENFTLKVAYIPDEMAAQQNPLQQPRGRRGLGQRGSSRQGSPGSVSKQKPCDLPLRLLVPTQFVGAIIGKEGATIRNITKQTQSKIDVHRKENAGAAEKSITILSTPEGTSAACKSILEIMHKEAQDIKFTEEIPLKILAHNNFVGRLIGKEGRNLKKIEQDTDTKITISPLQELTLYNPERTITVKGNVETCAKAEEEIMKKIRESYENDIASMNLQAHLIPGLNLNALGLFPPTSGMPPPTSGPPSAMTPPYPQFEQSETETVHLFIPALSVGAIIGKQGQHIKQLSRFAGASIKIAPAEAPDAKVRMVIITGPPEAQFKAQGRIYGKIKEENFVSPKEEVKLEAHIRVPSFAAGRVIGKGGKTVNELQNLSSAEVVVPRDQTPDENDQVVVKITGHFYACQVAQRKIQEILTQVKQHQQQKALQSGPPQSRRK
# Chain of IMP3 KH1-4 (chain, as listed by the source): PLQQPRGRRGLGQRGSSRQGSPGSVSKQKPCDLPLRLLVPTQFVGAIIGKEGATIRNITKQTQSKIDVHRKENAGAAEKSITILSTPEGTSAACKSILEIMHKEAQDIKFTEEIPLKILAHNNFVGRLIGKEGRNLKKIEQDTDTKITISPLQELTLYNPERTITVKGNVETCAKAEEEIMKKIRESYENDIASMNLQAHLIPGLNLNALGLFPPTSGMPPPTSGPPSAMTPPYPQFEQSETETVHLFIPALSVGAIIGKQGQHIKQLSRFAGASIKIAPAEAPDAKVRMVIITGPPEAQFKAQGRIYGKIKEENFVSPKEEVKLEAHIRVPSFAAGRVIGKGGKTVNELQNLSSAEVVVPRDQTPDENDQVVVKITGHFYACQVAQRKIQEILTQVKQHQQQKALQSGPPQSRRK
# Chain of IMP3 RRM1-2 (chain, as listed by the source): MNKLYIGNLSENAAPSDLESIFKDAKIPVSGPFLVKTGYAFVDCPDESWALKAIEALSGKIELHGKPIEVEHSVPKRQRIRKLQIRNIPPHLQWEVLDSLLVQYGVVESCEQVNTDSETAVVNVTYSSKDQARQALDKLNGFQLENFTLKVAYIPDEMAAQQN
# Chain of IMP3 KH3-4 (chain, as listed by the source): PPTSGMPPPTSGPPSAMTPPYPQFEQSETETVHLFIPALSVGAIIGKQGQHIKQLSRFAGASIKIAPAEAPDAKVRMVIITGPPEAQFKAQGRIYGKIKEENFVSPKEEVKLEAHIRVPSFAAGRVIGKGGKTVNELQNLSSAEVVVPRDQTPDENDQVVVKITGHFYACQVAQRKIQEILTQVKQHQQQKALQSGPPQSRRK
Sequence,6-mer SELEX enrichment z-score (IMP3 KH1-4),6-mer SELEX enrichment z-score (IMP3 RRM1-2),6-mer SELEX enrichment z-score (IMP3 full-length),6-mer SELEX enrichment z-score (IMP3 KH1-2),6-mer SELEX enrichment z-score (IMP3 KH3-4)
GTCCAC,0.31,0.178,0.434,0.07,-0.385
ATCAGC,-0.042,1.1,1.2,-0.022,-0.293
GTAGCT,-0.741,0.247,-0.432,-0.576,-0.489
TGCTGC,0.703,0.214,0.245,0.685,0.32
CACTTG,-0.224,0.531,0.162,-0.312,-0.471
CGAACG,-3.13,-1.53,-2.01,-2.86,-2.94
GCAGAA,0.053,-0.104,0.31,0.057,0.184
CCATCT,0.08,0.328,0.239,0.005,-0.385
AAACGG,-0.792,-1.57,-0.883,-1.05,-0.308
CAAATC,-0.259,0.882,0.396,-0.164,-0.647
GGCACG,1.97,0.437,2.63,1.49,1.34
AAATGC,-0.31,-1.27,-1.08,-0.37,-0.023
AGATAC,0.402,-0.489,-0.112,0.309,0.459
TGCGGC,1.08,0.306,1.34,0.728,1.06
AGCGGG,-0.429,-0.319,0.375,-0.187,-0.046
CCCCAG,-0.983,-0.837,-0.789,-0.764,-1.48
CGTACT,-0.914,-0.148,-0.476,-0.77,-0.784
TAAGAA,0.661,-1.16,-0.773,0.426,1.65
GAGAAC,-0.314,-1.21,-0.741,-0.31,-0.217
TAGCGG,0.326,0.099,0.416,0.235,0.637
AGGTCT,0.072,0.357,0.312,0.135,0.261
CCGAAG,-1.49,-1.33,-1.08,-1.27,-1.44
ACTGTC,0.242,0.001,0.035,0.127,-0.15
ACGATT,0.622,-0.615,-0.396,0.355,0.591
GCTAAT,0.308,-0.011,-0.011,0.318,0.547
AGATTC,0.554,-0.031,0.18,0.54,0.605
CCTGGT,-0.392,0.105,-0.132,-0.298,-0.384
GGCTTG,0.066,0.438,0.272,0.106,0.276

Sequence,6-mer SELEX enrichment z-score (IMP3 KH1-4),6-mer SELEX enrichment z-score (IMP3 RRM1-2),6-mer SELEX enrichment z-score (IMP3 full-length),6-mer SELEX enrichment z-score (IMP3 KH1-2),6-mer SELEX enrichment z-score (IMP3 KH3-4)
CACATC,1.1,2.64,2.6,1.07,-0.006
CGGGTT,-0.335,0.194,0.049,-0.191,-0.04
GCTATA,0.77,-0.035,0.154,0.724,1.01
AATATT,1.95,-0.217,0.282,1.76,2.8
CTATCA,0.978,1.3,0.869,0.879,0.681
ACGTCC,-0.883,-0.321,-0.212,-0.898,-1.2
AGCGCC,-1.5,-0.226,-0.12,-1.26,-1.5
GCGCAA,-0.372,-0.071,0.482,-0.403,-0.372
CGACAG,-0.934,-0.281,0.136,-0.822,-0.969
TGTAGT,-0.757,0.29,-0.736,-0.728,-0.55
ACCCGA,-2.96,-1.66,-2.35,-2.83,-3.26
CATCTA,0.815,0.655,0.782,0.438,0.313
TTCCCC,0.285,-0.359,-0.615,0.171,-0.548
GACATT,0.285,0.261,0.464,0.2,0.253
CGCGCG,-1.21,0.259,-0.167,-0.941,-0.956
TGCCGA,-1.24,-0.74,-0.755,-1.1,-1.19
ATCATA,2.04,2.58,2.46,1.91,2.08
CGATGA,0.04,-1.01,-0.602,-0.036,0.243
CTTCGA,-1.08,-0.017,-0.666,-0.923,-0.897
TCGATC,-0.564,0.364,0.036,-0.525,-0.543
GAGTTA,-0.232,-0.132,-0.29,-0.2,-0.028
TGGTCT,-0.056,0.484,0.124,-0.003,0.127
CCGGTT,-0.186,0.054,-0.069,-0.185,-0.132
AAAGCA,-0.675,-0.238,-0.534,-0.796,-0.567
GCCTAG,-0.886,-0.254,-0.558,-0.753,-0.735
CAGGTT,0.161,0.52,0.316,0.132,0.153
CTGAAG,-0.418,-0.609,-0.595,-0.409,-0.394
